# Experimental data published in the supplement of paper PMC8728848.
# The other results are listed elsewhere or left out.
# Legend:
# Assay in all cases: glycan array binding signal (z-score within array); higher = stronger binding
# Settings in all cases: glycan notation: IUPAC condensed, linker removed
# Glc(b1-6)Glc = target: Glc(b1-6)Glc
# Procedure, shortened: (§1)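 From the Consortium for Functional Glycomics database, 3228 arrays were curated, keeping only those whose protein sequence was available. Binding is given as a within-array Z-score averaged across arrays sharing a protein sequence and across linkers. Negative Z-scores can be read as non-binding.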
# GlcA(b1-3)Gal = target: GlcA(b1-3)Gal
# Procedure, shortened: as §1
# GlcA(b1-3)GlcNAc = target: GlcA(b1-3)GlcNAc
# Procedure, shortened: as §1
# GlcA(b1-6)Gal = target: GlcA(b1-6)Gal
# Procedure, shortened: as §1
# [1] = target: GlcA3S(b1-3)Gal(b1-4)GlcNAc(b1-2)Man
# Procedure, shortened: as §1
# [2] = target: GlcA3S(b1-3)Gal(b1-4)GlcNAc(b1-3)Gal(b1-4)Glc
# Procedure, shortened: as §1
# [3] = target: GlcNAc(a1-3)Gal(b1-4)GlcNAc
# Procedure, shortened: as §1
# [4] = target: GlcNAc(a1-4)Gal(b1-3)GlcNAc
# Procedure, shortened: as §1
# [5] = target: GlcNAc(a1-4)Gal(b1-4)GalNAc
# Procedure, shortened: as §1
# [6] = target: GlcNAc(a1-4)Gal(b1-4)GlcNAc
# Procedure, shortened: as §1
# [7] = target: GlcNAc(a1-4)Gal(b1-4)GlcNAc(b1-3)Gal(b1-4)Glc
# Procedure, shortened: as §1
# [8] = target: GlcNAc(a1-4)Gal(b1-4)GlcNAc(b1-3)Gal(b1-4)GlcNAc
# Procedure, shortened: as §1
# [9] = target: GlcNAc(a1-4)Gal(b1-4)GlcNAc(b1-3)Gal(b1-4)GlcNAc(b1-3)Gal(b1-4)GlcNAc
# Procedure, shortened: as §1
# [10] = target: GlcNAc(a1-4)Gal(b1-4)GlcNAc(b1-3)Gal(b1-4)[Fuc(a1-3)]GlcNAc(b1-3)Gal(b1-4)[Fuc(a1-3)]GlcNAc
# Procedure, shortened: as §1
# [11] = target: GlcNAc(a1-6)Gal(b1-4)GlcNAc
# Procedure, shortened: as §1
# [12] = target: GlcNAc(b1-2)Gal(b1-3)GalNAc
# Procedure, shortened: as §1
# [13] = target: GlcNAc(b1-2)Man(a1-3)[GlcNAc(b1-2)Man(a1-6)]Man(b1-4)GlcNAc(b1-4)GlcNAc
# Procedure, shortened: as §1
# [14] = target: GlcNAc(b1-2)Man(a1-3)[GlcNAc(b1-2)Man(a1-6)]Man(b1-4)GlcNAc(b1-4)[Fuc(a1-6)]GlcNAc
# Procedure, shortened: as §1
# [15] = target: GlcNAc(b1-2)Man(a1-3)[GlcNAc(b1-4)][GlcNAc(b1-2)Man(a1-6)]Man(b1-4)GlcNAc(b1-4)GlcNAc
# Procedure, shortened: as §1
# [16] = target: GlcNAc(b1-2)Man(a1-3)[GlcNAc(b1-4)][GlcNAc(b1-2)Man(a1-6)]Man(b1-4)GlcNAc(b1-4)[Fuc(a1-6)]GlcNAc
# Procedure, shortened: as §1
# [17] = target: GlcNAc(b1-2)[GlcNAc(b1-4)]Man(a1-3)[GlcNAc(b1-2)Man(a1-6)]Man(b1-4)GlcNAc(b1-4)GlcNAc
# Procedure, shortened: as §1
# [18] = target: GlcNAc(b1-2)[GlcNAc(b1-4)]Man(a1-3)[GlcNAc(b1-4)][GlcNAc(b1-2)Man(a1-6)]Man(b1-4)GlcNAc(b1-4)GlcNAc
# Procedure, shortened: as §1
# [19] = target: GlcNAc(b1-2)[GlcNAc(b1-4)]Man(a1-3)[GlcNAc(b1-4)][GlcNAc(b1-2)[GlcNAc(b1-6)]Man(a1-6)]Man(b1-4)GlcNAc(b1-4)GlcNAc
# Procedure, shortened: as §1
# [20] = target: GlcNAc(b1-2)[GlcNAc(b1-4)]Man(a1-3)[GlcNAc(b1-4)][GlcNAc(b1-2)[GlcNAc(b1-6)]Man(a1-6)]Man(b1-4)GlcNAc(b1-4)[Fuc(a1-6)]GlcNAc
# Procedure, shortened: as §1
# [21] = target: GlcNAc(b1-2)[GlcNAc(b1-6)]Man(a1-6)[GlcNAc(b1-2)Man(a1-3)]Man(b1-4)GlcNAc(b1-4)GlcNAc
# Procedure, shortened: as §1
# [22] = target: GlcNAc(b1-2)[GlcNAc(b1-6)]Man(a1-6)[GlcNAc(b1-2)Man(a1-3)]Man(b1-4)GlcNAc(b1-4)[Fuc(a1-6)]GlcNAc
# Procedure, shortened: as §1
# [23] = target: GlcNAc(b1-2)[GlcNAc(b1-6)]Man(a1-6)[GlcNAc(b1-4)][GlcNAc(b1-2)Man(a1-3)]Man(b1-4)GlcNAc(b1-4)GlcNAc
# Procedure, shortened: as §1
# GlcNAc(b1-3)Fuc = target: GlcNAc(b1-3)Fuc
# Procedure, shortened: as §1
# GlcNAc(b1-3)Gal = target: GlcNAc(b1-3)Gal
# Procedure, shortened: as §1
# [24] = target: GlcNAc(b1-3)Gal(b1-3)GalNAc
# Procedure, shortened: as §1
# GlcNAc(b1-3)Gal(b1-4)Glc = target: GlcNAc(b1-3)Gal(b1-4)Glc
# Procedure, shortened: as §1
# [25] = target: GlcNAc(b1-3)Gal(b1-4)GlcNAc
# Procedure, shortened: as §1
# [26] = target: GlcNAc(b1-3)Gal(b1-4)GlcNAc(b1-2)Man(a1-3)[GlcNAc(b1-3)Gal(b1-4)GlcNAc(b1-2)Man(a1-6)]Man(b1-4)GlcNAc(b1-4)GlcNAc
# Procedure, shortened: as §1
# [27] = target: GlcNAc(b1-3)Gal(b1-4)GlcNAc(b1-2)Man(a1-3)[GlcNAc(b1-3)Gal(b1-4)GlcNAc(b1-2)Man(a1-6)]Man(b1-4)GlcNAc(b1-4)[Fuc(a1-6)]GlcNAc
# Procedure, shortened: as §1
# [28] = target: GlcNAc(b1-3)Gal(b1-4)GlcNAc(b1-2)[GlcNAc(b1-3)Gal(b1-4)GlcNAc(b1-6)]Man(a1-6)[GlcNAc(b1-3)Gal(b1-4)GlcNAc(b1-2)Man(a1-3)]Man(b1-4)GlcNAc(b1-4)GlcNAc
# Procedure, shortened: as §1
# [29] = target: GlcNAc(b1-3)Gal(b1-4)GlcNAc(b1-3)Gal(b1-4)GlcNAc
# Procedure, shortened: as §1
# [30] = target: GlcNAc(b1-3)Gal(b1-4)GlcNAc(b1-3)Gal(b1-4)GlcNAc(b1-2)Man(a1-3)[GlcNAc(b1-3)Gal(b1-4)GlcNAc(b1-3)Gal(b1-4)GlcNAc(b1-2)Man(a1-6)]Man(b1-4)GlcNAc(b1-4)GlcNAc
# Procedure, shortened: as §1
# [31] = target: GlcNAc(b1-3)Gal(b1-4)GlcNAc(b1-3)Gal(b1-4)GlcNAc(b1-2)Man(a1-3)[GlcNAc(b1-3)Gal(b1-4)GlcNAc(b1-3)Gal(b1-4)GlcNAc(b1-2)Man(a1-6)]Man(b1-4)GlcNAc(b1-4)[Fuc(a1-6)]GlcNAc
# Procedure, shortened: as §1
# [32] = target: GlcNAc(b1-3)Gal(b1-4)GlcNAc(b1-3)Gal(b1-4)GlcNAc(b1-2)[GlcNAc(b1-3)Gal(b1-4)GlcNAc(b1-3)Gal(b1-4)GlcNAc(b1-6)]Man(a1-6)[GlcNAc(b1-3)Gal(b1-4)GlcNAc(b1-3)Gal(b1-4)GlcNAc(b1-2)Man(a1-3)]Man(b1-4)GlcNAc(b1-4)[Fuc(a1-6)]GlcNAc
# Procedure, shortened: as §1
# [33] = target: GlcNAc(b1-3)Gal(b1-4)GlcNAc(b1-3)Gal(b1-4)GlcNAc(b1-3)Gal(b1-4)GlcNAc(b1-2)Man(a1-3)[GlcNAc(b1-3)Gal(b1-4)GlcNAc(b1-3)Gal(b1-4)GlcNAc(b1-3)Gal(b1-4)GlcNAc(b1-2)Man(a1-6)]Man(b1-4)GlcNAc(b1-4)GlcNAc
# Procedure, shortened: as §1
# [34] = target: GlcNAc(b1-3)Gal(b1-4)GlcNAc(b1-3)Gal(b1-4)GlcNAc(b1-3)Gal(b1-4)GlcNAc(b1-2)Man(a1-3)[GlcNAc(b1-3)Gal(b1-4)GlcNAc(b1-3)Gal(b1-4)GlcNAc(b1-3)Gal(b1-4)GlcNAc(b1-2)Man(a1-6)]Man(b1-4)GlcNAc(b1-4)[Fuc(a1-6)]GlcNAc
# Procedure, shortened: as §1
# [35] = target: GlcNAc(b1-3)Gal(b1-4)GlcNAc(b1-3)Gal(b1-4)GlcNAc(b1-3)Gal(b1-4)GlcNAc(b1-2)[GlcNAc(b1-3)Gal(b1-4)GlcNAc(b1-3)Gal(b1-4)GlcNAc(b1-3)Gal(b1-4)GlcNAc(b1-6)]Man(a1-6)[GlcNAc(b1-3)Gal(b1-4)GlcNAc(b1-3)Gal(b1-4)GlcNAc(b1-3)Gal(b1-4)GlcNAc(b1-2)Man(a1-3)]Man(b1-4)GlcNAc(b1-4)[Fuc(a1-6)]GlcNAc
# Procedure, shortened: as §1
# [36] = target: GlcNAc(b1-3)Gal(b1-4)GlcNAc(b1-3)Gal(b1-4)GlcNAc(b1-3)Gal(b1-4)GlcNAc(b1-3)Gal(b1-4)GlcNAc(b1-2)Man(a1-3)[GlcNAc(b1-3)Gal(b1-4)GlcNAc(b1-3)Gal(b1-4)GlcNAc(b1-3)Gal(b1-4)GlcNAc(b1-3)Gal(b1-4)GlcNAc(b1-2)Man(a1-6)]Man(b1-4)GlcNAc(b1-4)GlcNAc
# Procedure, shortened: as §1
# [37] = target: GlcNAc(b1-3)Gal(b1-4)GlcNAc(b1-3)Gal(b1-4)GlcNAc(b1-3)Gal(b1-4)GlcNAc(b1-3)Gal(b1-4)GlcNAc(b1-2)Man(a1-3)[GlcNAc(b1-3)Gal(b1-4)GlcNAc(b1-3)Gal(b1-4)GlcNAc(b1-3)Gal(b1-4)GlcNAc(b1-3)Gal(b1-4)GlcNAc(b1-2)Man(a1-6)]Man(b1-4)GlcNAc(b1-4)[Fuc(a1-6)]GlcNAc
# Procedure, shortened: as §1
# [38] = target: GlcNAc(b1-3)Gal(b1-4)GlcNAc(b1-3)Gal(b1-4)GlcNAc(b1-3)Gal(b1-4)GlcNAc(b1-3)Gal(b1-4)GlcNAc(b1-2)[GlcNAc(b1-3)Gal(b1-4)GlcNAc(b1-3)Gal(b1-4)GlcNAc(b1-3)Gal(b1-4)GlcNAc(b1-3)Gal(b1-4)GlcNAc(b1-6)]Man(a1-6)[GlcNAc(b1-3)Gal(b1-4)GlcNAc(b1-3)Gal(b1-4)GlcNAc(b1-3)Gal(b1-4)GlcNAc(b1-3)Gal(b1-4)GlcNAc(b1-2)Man(a1-3)]Man(b1-4)GlcNAc(b1-4)[Fuc(a1-6)]GlcNAc
# Procedure, shortened: as §1
binder,measurement,setting,value
Microvirin-2 (Microcystis aeruginosa) (protein) MPNFSHTCSSINYDPDSTILSAECQARDGEWLPTELRLSDHIGNIDGELQFGDQNFQETCQDCHLEFGDGEQSVWLVCTCQTMDGEWKSTQILLDSQIDNNDSQLEIGGSMPNFSHTCSSINYDPDSTILSAECQARDGEWLPTELRLSDHIGNIDGELQFGDQNFQETCQDCHLEFGDGEQSVWLVCTCQTMDGEWKSTQILLDSQIDNNDSQLEIG,glycan array binding signal (z-score),Glc(b1-6)Glc,-0.124
same,glycan array binding signal (z-score),GlcA(b1-3)Gal,-0.14
same,glycan array binding signal (z-score),GlcA(b1-3)GlcNAc,-0.131
same,glycan array binding signal (z-score),GlcA(b1-6)Gal,-0.139
same,glycan array binding signal (z-score),[1],-0.135
same,glycan array binding signal (z-score),[2],-0.133
same,glycan array binding signal (z-score),[3],-0.138
same,glycan array binding signal (z-score),[4],-0.142
same,glycan array binding signal (z-score),[5],-0.137
same,glycan array binding signal (z-score),[6],-0.147
same,glycan array binding signal (z-score),[7],-0.139
same,glycan array binding signal (z-score),[8],-0.147
same,glycan array binding signal (z-score),[9],-0.122
same,glycan array binding signal (z-score),[10],-0.031
same,glycan array binding signal (z-score),[11],-0.142
same,glycan array binding signal (z-score),[12],-0.133
same,glycan array binding signal (z-score),[13],-0.128
same,glycan array binding signal (z-score),[14],-0.121
same,glycan array binding signal (z-score),[15],-0.139
same,glycan array binding signal (z-score),[16],-0.146
same,glycan array binding signal (z-score),[17],-0.139
same,glycan array binding signal (z-score),[18],-0.138
same,glycan array binding signal (z-score),[19],-0.141
same,glycan array binding signal (z-score),[20],-0.146
same,glycan array binding signal (z-score),[21],-0.133
same,glycan array binding signal (z-score),[22],-0.13
same,glycan array binding signal (z-score),[23],-0.137
same,glycan array binding signal (z-score),GlcNAc(b1-3)Fuc,-0.133
same,glycan array binding signal (z-score),GlcNAc(b1-3)Gal,-0.138
same,glycan array binding signal (z-score),[24],-0.123
same,glycan array binding signal (z-score),GlcNAc(b1-3)Gal(b1-4)Glc,-0.144
same,glycan array binding signal (z-score),[25],-0.13
same,glycan array binding signal (z-score),[26],-0.125
same,glycan array binding signal (z-score),[27],0.01
same,glycan array binding signal (z-score),[28],-0.109
same,glycan array binding signal (z-score),[29],-0.145
same,glycan array binding signal (z-score),[30],-0.019
same,glycan array binding signal (z-score),[31],-0.066
same,glycan array binding signal (z-score),[32],-0.125
same,glycan array binding signal (z-score),[33],-0.138
same,glycan array binding signal (z-score),[34],-0.084
same,glycan array binding signal (z-score),[35],-0.116
same,glycan array binding signal (z-score),[36],-0.111
same,glycan array binding signal (z-score),[37],-0.098
same,glycan array binding signal (z-score),[38],-0.11
